Measured values taken from article PMC4336329 (PLoS ONE, 2015).
In all, about 310,000 compounds went through this assay and about 2,200 (0.71%) showed an effect of 50% or more. The effect is printed as a negative number. The list shows a part of the results.

target: human ether-à-go-go-related gene (hERG) potassium channel (human, UniProt Q12809); experiment: primary screen, population patch clamp on CHO cells stably expressing hERG
Sequence (Q12809 whole entry, looked up): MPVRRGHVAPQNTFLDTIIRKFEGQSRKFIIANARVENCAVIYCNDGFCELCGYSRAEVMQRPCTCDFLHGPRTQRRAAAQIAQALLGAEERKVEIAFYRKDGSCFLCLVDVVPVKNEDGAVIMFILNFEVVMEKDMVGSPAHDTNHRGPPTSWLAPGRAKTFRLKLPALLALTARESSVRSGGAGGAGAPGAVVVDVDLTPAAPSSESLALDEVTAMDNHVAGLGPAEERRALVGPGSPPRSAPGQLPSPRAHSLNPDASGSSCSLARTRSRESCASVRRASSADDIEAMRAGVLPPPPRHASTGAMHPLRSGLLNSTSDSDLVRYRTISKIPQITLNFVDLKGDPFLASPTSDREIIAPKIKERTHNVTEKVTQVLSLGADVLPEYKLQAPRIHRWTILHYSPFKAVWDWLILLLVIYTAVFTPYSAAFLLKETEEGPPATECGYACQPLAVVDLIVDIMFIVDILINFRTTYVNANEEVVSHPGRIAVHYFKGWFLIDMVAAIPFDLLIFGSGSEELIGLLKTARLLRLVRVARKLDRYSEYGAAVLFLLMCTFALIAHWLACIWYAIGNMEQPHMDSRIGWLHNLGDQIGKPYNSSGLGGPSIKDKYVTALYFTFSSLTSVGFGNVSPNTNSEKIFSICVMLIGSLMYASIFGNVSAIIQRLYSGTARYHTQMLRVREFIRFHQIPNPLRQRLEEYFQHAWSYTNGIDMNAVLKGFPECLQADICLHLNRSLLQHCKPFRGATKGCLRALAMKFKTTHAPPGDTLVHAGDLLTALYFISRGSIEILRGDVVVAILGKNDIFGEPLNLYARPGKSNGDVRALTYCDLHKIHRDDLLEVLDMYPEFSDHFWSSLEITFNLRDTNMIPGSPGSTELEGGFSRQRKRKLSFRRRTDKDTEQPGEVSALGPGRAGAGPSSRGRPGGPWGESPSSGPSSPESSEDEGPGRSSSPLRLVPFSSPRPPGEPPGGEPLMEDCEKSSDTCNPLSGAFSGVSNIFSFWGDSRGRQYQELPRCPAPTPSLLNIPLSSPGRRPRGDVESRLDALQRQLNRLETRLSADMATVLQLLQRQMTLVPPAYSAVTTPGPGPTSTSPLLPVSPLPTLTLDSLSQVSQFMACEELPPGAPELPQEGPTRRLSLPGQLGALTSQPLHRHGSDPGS

Row | SMILES | hERG current change (%, negative = inhibition) at 1uM
1 | O=C(Nc1ccc(F)c(Cl)c1)Nc1cnccn1 | 9.43%
2 | CCOc1ccc(C(=O)NC(=S)Nc2ccc(N3CCCCC3)cc2)cc1[N+](=O)[O-] | 12.1%
3 | CC(=O)c1ccc(NC(=S)NC(=O)/C=C/c2ccc(F)cc2)cc1 | 17%
4 | O=C(COC(=O)C1CCN(S(=O)(=O)c2cccs2)CC1)c1ccccc1 | 24%
5 | Cc1cc(C)c(C)c(OCCn2ccnc2)c1 | 14.4%
6 | C=CC(=O)N(CCC)C(c1ccccc1)c1ccccc1OC (stereo not drawn) | 11.1%
7 | O=C(Nc1nc2nc(-c3ccccc3)cc(=O)n2[nH]1)c1ccccc1 | 12.8%
8 | CC(C)Oc1cccc(C(=O)NC(=S)Nc2ccccc2)c1 | 5.02%
9 | COc1ccc(C(=O)NC2CCN(CC(=O)Nc3c(C)cccc3C)CC2)cc1OC | 12.7%
10 | CCC(=O)c1cc2c(C)cc(=O)oc2c(C)c1O | 1.78%
11 | CCc1nn(CCCC(=O)NC(C)c2ccccc2)c(=O)c2cc3occc3n12 (stereo not drawn) | 2.58%
12 | Cn1cc(-c2cc(C(=O)O)on2)cn1 | 4.82%
13 | Clc1ccc(OCCCCCN2CCCC2)c(Br)c1 | -3.46%
14 | COc1cc(/C=C/C(=O)OCC(=O)N2CCC(C)CC2)ccc1OCC#N | 8.55%
15 | COc1ccc(S(N)(=O)=O)cc1C(=O)NCC1(N2CCCCC2)CCCCC1 | 7.44%
16 | Cc1ccsc1C(=O)N1CCN(c2ccccn2)CC1 | 10%
17 | COc1cc(/C=N/N(C)c2ccccc2)cc(Cl)c1O | 11.7%
18 | O=C(/C=C/c1ccco1)NCC(=O)N/N=C/c1ccc([N+](=O)[O-])cc1 | 14.6%
19 | O=CN1CCN(C(C(=O)NC2CCCC2)c2ccc(Cl)cc2)CC1 (stereo not drawn) | -7.61%

Row | SMILES | hERG current change (%, negative = inhibition) at 1uM
20 | Cc1ccc(NC(=O)C(=O)NCc2ccc(/C=C(/C#N)C(=O)NCc3cccnc3)o2)cc1 | -13.6%
21 | Cn1cc(S(=O)(=O)Nc2cccc(F)c2)c(=O)n(C)c1=O | -12.9%
22 | CCOc1ccc(NS(=O)(=O)c2cc(NC(=O)CCC(=O)c3cccs3)ccc2Cl)cc1 | 13.7%
23 | COc1ccc([C@H]2CC(=O)C=C(c3cc(C(F)(F)F)cc(C(F)(F)F)c3)C2)cc1 | 10.3%
24 | CNC(=O)c1oc(-c2ccccc2)nc1C | 3.57%
25 | CN1CCN(C(=S)SCC(=O)Nc2nc(-c3ccccc3)c(-c3ccccc3)o2)CC1 | -1.46%
26 | CCOC(=O)CCC(=O)N1CCOCCOCCN(C(=O)CCC(=O)OCC)CCOCCOCC1 | 11%
27 | CCOc1ccc(C(=O)Nc2ccccc2N2CCCC2)cc1 | -1.85%
28 | CCOC(=O)c1sc(NC(=O)CSc2n[nH]c(-c3ccccc3)n2)c(C#N)c1C | -0.898%
29 | Cc1ccc(OCC(O)CN2CCOCC2)cc1C.Cl (stereo not drawn) | 16.1%
30 | C/C(=N\NS(C)(=O)=O)c1ccc(C)cc1 | 9.38%
31 | Cc1cccc(NC(=S)NCC(c2cccnc2)N2CCOCC2)c1 (stereo not drawn) | 18.9%
32 | Nc1cc(C(=O)N/N=C/c2cccc([N+](=O)[O-])c2)n[nH]c1=O | 13.1%
33 | CC(C)C(=O)N1CCN(c2ccccc2NC(=O)Cc2ccc(Cl)cc2)CC1 | -38.9%
34 | CN(CCC#N)C(=S)Nc1ccc(S(=O)(=O)N2CCOCC2)cc1 | 18.2%
35 | Cc1ccc(NC(=O)CN2C(=O)N/C(=C/c3ccc(N4CCOCC4)cc3)C2=O)cc1 | -4.04%
36 | Cc1ccc(CN(C(=O)Cn2nnc3ccccc32)C(C(=O)NCc2ccco2)c2ccc(C)o2)cc1 (stereo not drawn) | 6.99%
37 | N#Cc1c(C(F)(F)F)cc(-c2cccc(Cl)c2)[nH]c1=O | 14.7%
38 | COc1ccc(C(c2c(N)[nH]c(=S)[nH]c2=O)c2c(N)[nH]c(=S)[nH]c2=O)cc1 | 13.9%

Row | SMILES | hERG current change (%, negative = inhibition) at 1uM
39 | CCCCCCOc1ccc(N2C(=O)CC(N3CCN(C(=O)c4ccco4)CC3)C2=O)cc1 (stereo not drawn) | 10.3%
40 | CCN1c2ccccc2-c2nc3ccccc3n2C1c1ccco1 (stereo not drawn) | 3.47%
41 | NS(=O)(=O)c1cnccc1NCCc1ccccc1 | 14.4%
42 | Cc1cc(NC(=O)COn2nnc3ccc(S(C)(=O)=O)cc32)ccc1Br | -2.22%
43 | Cc1nn(CC(=O)Nc2ccc(Cl)cc2)c(=O)c2cc(-c3ccccc3)nn12 | 18.8%
44 | O=C(C1CCCCC1)N1CCN=C1SCc1cccc([N+](=O)[O-])c1 | 3.79%
45 | Cc1cccc(C(C)C)c1NC(=O)C(C)OC(=O)Cc1n[nH]c(=O)c2ccccc12 (stereo not drawn) | 16.5%
46 | O=C(NNC(=O)c1ccc(Cl)cc1Cl)Nc1ccccc1 | 8.54%
47 | COc1ccc(CNC(=O)NS(=O)(=O)c2ccc(C)cc2)cc1 | 5.34%
48 | CC(C)CNc1nc(NC(C)(C)C)nc(Oc2ccc(=O)[nH]n2)n1 | 5.16%
49 | Cc1ccc(-n2c(Cc3cccn3C)nnc2SCC(=O)NC2CCCCC2)cc1 | -7.66%
50 | Cc1cc(C)nc(NC(=S)Nc2ccccc2)n1 | 2.62%
51 | O=C(Nc1cccc(S(=O)(=O)N2CCCCC2)c1)c1ccc2ncsc2c1 | -4.22%
52 | COc1ccc(/C=N/NC(=O)c2sccc2C)c2ccccc12 | 11.5%
53 | COc1ccccc1/C=C1\S/C(=N/NC(=O)c2cccc(Br)c2)NC1=O | 12.2%
54 | COc1cc2cnc(-c3ccccc3)c(-c3ccc([N+](=O)[O-])cc3)c2cc1OC | 15.4%
55 | CCn1c(O)c(/C=N/n2cnnc2)sc1=S | 9.03%
56 | COc1cc(-c2noc(C)n2)cc(OC)c1OC | 15.5%
57 | COc1cc(OC)c2c(O)c3c(c(-c4c5c(c(O)c6c(OC)cc(OC)cc46)CO[C@@H](C)[C@H]5O)c2c1)[C@H](O)[C@H](C)OC3 | 9.73%
